# PubChem BioAssay AID504466 (National Center for Advancing Translational Sciences (NCATS), 2011)
# About 4,200 (1.3%) of roughly 330,000 compounds were called active. The inconclusive results got no clear call from the source; some entries with a clear call stand among them for comparison. The call rests on the fitted dose curve; in most records, active means well fitted activation curve with a large enough effect; inconclusive means small, poorly fitted or top-dose-only effect; inactive means no such curve, though single readings can be large or run the other way. Potencies of inconclusive entries are doubtful fits and often do not repeat.
# Experiment: qHTS screen for small molecules that induce genotoxicity in human embryonic kidney (HEK293T) cells expressing luciferase-tagged ELG1; further: nearly all actives have a fitted effect of over 60% in size; on activity change, positive = activation: % of control where 0% means no effect
# Details: HEK293T ELG1-luciferase reporter, luminescence, 16 h; series mostly up to 46 µM; activity change, positive = activation: at the top concentration
# Procedure, shortened: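 HEK293T cells expressing luciferase-tagged ELG1 were treated with compound or DMSO for 16 hr at 37°C. Luciferase activity was then read after 30 min with ONE-Glo at room temperature; rising signal flags genetic stress.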
# Potency means the concentration at half of the fitted maximal effect; tags describe the fitted curve by direction and shape.
Structure (SMILES),Potency,"activity change, positive = activation"
Cc1ccc(OCCCNCCO)c(Br)c1,"inconclusive: 9.2 µM [activator, partial curve, poor fit]",–
c1ccc(Cn2ccnc2-c2ccco2)cc1,"inconclusive: 32.6 µM [activator, partial curve, poor fit]",–
O=C(NCCCn1ccnc1)/C(=C/c1ccc(F)cc1)NC(=O)c1ccccc1,–,inactive: -6.39%
COc1ccc(Cl)cc1C(=O)Nc1ccc(NC(=O)C(C)C)cc1,–,inactive: -4.43%
CN(C)CCN(C(=O)c1cccs1)c1nc2cc3c(cc2s1)OCCO3,"inconclusive: 23.1 µM [activator, partial curve]",–
CN(C)/C=C1\N=C(c2ccc(Cl)cc2Cl)OC1=O,active: 9.2 µM,–
CC(=O)CSc1nnc(-c2ccc3c(c2)OCO3)o1,"inconclusive: 10.3 µM [activator, partial curve]",–
CCCN1CCN(C(=O)c2cc3c(s2)-c2ccccc2S(=O)(=O)C3)CC1,"inconclusive: 20.6 µM [activator, partial curve, poor fit]",–
COc1ccc(/C=C/C(=O)NC(=S)NNC(=O)Cc2cccs2)cc1,"inconclusive: 25.1 µM [activator, single point]",–
Cc1nc2nc(C)c(NS(=O)(=O)c3ccc(CC(C)C)cc3)c(=O)n2[nH]1,–,inactive: 3.39%
CCOC(Cn1ccc(=O)[nH]c1=O)OCC,–,inactive: 2.37%
O=C(CN1C(=O)c2ccccc2C1=O)N1CCN(c2ccccc2)CC1,–,inactive: -4.3%
Cc1sc2c(c1C)CN(C(C)(C)C)CN2C(=O)c1ccccc1,"inconclusive: 16.4 µM [activator, partial curve]",–
Nc1ccccc1N=Cc1ccc(-c2cccc(Cl)c2)o1,–,inactive: -5.6%
O=C(CN(c1ccccc1)S(=O)(=O)c1ccc(F)cc1)NC1CCCCCC1,"inconclusive: 18.3 µM [activator, partial curve]",–
Cc1ccc2oc(-c3ccco3)cc(=O)c2c1,active: 20.6 µM,–
COc1ccc(N=Nc2c(N)n[nH]c2N)cc1,–,inactive: 11.1%
CCCC(=O)Nc1c(-c2cccc(OC)c2)c(=O)c2ccccc2n1C,–,inactive: -0.729%
CCOC(=O)c1ccc(NC(=S)N2CCN(CCNC3=CC(=O)CC(C)(C)C3)CC2)cc1,–,inactive: 0.0898%
Cc1ccc2nc(/C=C/c3cccc(F)c3)ccc2c1,active: 1.84 µM,–
CC(=O)Oc1ccc(/C=C2/Oc3ccccc3C2=O)cc1,"inconclusive: 18.3 µM [activator, single point]",–
O=C(c1ccco1)N1CCCN(Cc2nc(-c3cccs3)no2)CC1,–,inactive: -0.669%
CCOc1ccc2c(c1)C(=NNC(=O)c1ccncc1)c1cc(OCC)ccc1-2,"inconclusive: 29.1 µM [activator, single point]",–
COc1cccc(Nc2ncccc2C(=O)O)c1,"inconclusive: 18.4 µM [activator, single point]",–

Structure (SMILES),Potency,"activity change, positive = activation"
CC1SCC(=NOCc2ccccc2)CS1 (configuration not stated),"inconclusive: 23.1 µM [activator, partial curve, poor fit]",–
O=[N+]([O-])c1ccccc1CNCCCCCO,–,inactive: 3.26%
COc1ccc(-c2cc(C(F)F)n3ncc(C(=O)n4ccnc4C)c3n2)cc1,"inconclusive: 25.9 µM [activator, partial curve, poor fit]",–
O=C(COC(=O)c1ccccc1Br)Nc1ccc(F)cc1,"inconclusive: 14.6 µM [activator, partial curve, poor fit]",–
Cc1ccc(O)c(C(=O)/C=C/c2ccc3c(c2)OCCCO3)c1,"inconclusive: 20.6 µM [activator, partial curve]",–
Cc1c(C(=O)N2CCN(S(C)(=O)=O)CC2)oc2ccccc12,"inconclusive: 29.1 µM [activator, partial curve, poor fit]",–
O=c1c2[nH]c3ccccc3c2ncn1C1CCCCC1,"inconclusive: 16.4 µM [activator, partial curve]",–
CCN(CC)CCNC(=O)c1ccc(NC(=O)c2cn(-c3ccc(F)cc3)nc2-c2cccc(OC)c2)cc1,"inconclusive: 25.9 µM [activator, single point]",–
O=C(/C=C/c1cccs1)Nc1nccs1,active: 18.3 µM,–
CCC(=NCc1ccccc1)c1c(C(F)(F)F)[nH]n(-c2nc3ccccc3s2)c1=O,"inconclusive: 9.2 µM [activator, partial curve]",–
O=C(Nc1ccc2c(c1)oc1ccccc12)c1ccc2c(c1)OCO2,"inconclusive: 29.1 µM [activator, partial curve, poor fit]",–
Cc1sc(NC(=O)c2ccc(Br)s2)c(C(N)=O)c1C,"inconclusive: 2.24 µM [activator, partial curve, poor fit]",–
O=C1NC(Cc2ccccc2)c2nc3ccccc3c(=O)n2-c2ccc(Cl)cc21 (configuration not stated),–,inactive: -0.307%
CCN(CC)CCNC(=O)c1ccc(NC(=O)/C=C/c2cc(OC)c(OC)c(OC)c2)cc1,"inconclusive: 25.9 µM [activator, partial curve, poor fit]",–
Nc1cc(N)nc(SCCOc2ccccc2)n1,"inconclusive: 20.6 µM [activator, partial curve, poor fit]",–
O=C(Nc1ccccn1)c1ccc(-c2ccccc2)cc1,"inconclusive: 0.092 µM [activator, full curve, poor fit]",–
Cc1ccc(C(=O)NCCSC(C)(C)C)cc1,active: 1.84 µM,–
S=C(Nc1nc2c(s1)CCCC2)NC1CC1,"inconclusive: 9.2 µM [activator, partial curve]",–
Cc1cc(C)c(C)c(N=Nc2nc3ccccc3n2C)c1C,"inconclusive: 10.3 µM [activator, partial curve]",–
Cc1ccc(/C=N/Nc2ccc3ccccc3n2)o1,"inconclusive: 0.092 µM [activator, full curve, poor fit]",–
CC(=O)Oc1ccc2c(C)c(CC(=O)N3CCN(C(=O)C4COc5ccccc5O4)CC3)c(=O)oc2c1C (configuration not stated),–,inactive: -7.32%
Cc1ccnc(NC(=O)Nc2ccc3c(c2)N(C)C(=O)CS3)c1,"inconclusive: 16.4 µM [activator, partial curve, poor fit]",–
CCOc1ccc(S(=O)(=O)n2c([N+](=O)[O-])cnc2C)c(C)c1C,–,inactive: -1.55%
